From paper PMC6555819
The other results are listed elsewhere or left out.

Target: T1, VDR (Homo sapiens) (UniProt P11473)
T1 sequence: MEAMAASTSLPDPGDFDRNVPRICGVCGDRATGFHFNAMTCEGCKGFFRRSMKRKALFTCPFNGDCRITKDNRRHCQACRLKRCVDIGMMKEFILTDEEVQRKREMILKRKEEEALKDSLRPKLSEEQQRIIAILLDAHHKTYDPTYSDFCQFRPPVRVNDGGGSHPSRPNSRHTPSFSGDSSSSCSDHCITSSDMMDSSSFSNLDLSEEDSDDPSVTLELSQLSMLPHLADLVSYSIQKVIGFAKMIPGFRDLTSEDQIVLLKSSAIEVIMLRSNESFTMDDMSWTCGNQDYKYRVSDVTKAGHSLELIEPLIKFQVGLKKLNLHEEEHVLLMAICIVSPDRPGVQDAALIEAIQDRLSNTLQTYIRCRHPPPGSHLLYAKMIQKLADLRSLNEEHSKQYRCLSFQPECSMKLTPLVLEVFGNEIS
Settings: 270 nM, no RXRa, PBS pH 7.4, 2% milk, 0.02% Triton X-100, 1 mM DTT, BSA, 0.4 mg/ml salmon testes DNA; double strand, one strand shown

Sequence	binding signal (PBM z-score against 500 random probes)
GCTTTGAAGACACTGAAGGAGTGAGCCATTTGGATCGCGATTGACAGCGTAGAATGAAGG	-0.39
GCGAGTTTCCAGCAGATGGCCATCACAACAATACTGGCGATTGACAGCGTAGAATGAAGG	0.22
GCAGCTTGACTTTGGTGACATTCTTCCTTCGTCCCTGCGATTGACAGCGTAGAATGAAGG	-0.17
GCTACACTCTCCCAAGACTAAACCAGGAAGAAGTTGGCGATTGACAGCGTAGAATGAAGG	0.48
GCTATGGTTTGGCTGTGTCTCCATTCAAATCTCAACGCGATTGACAGCGTAGAATGAAGG	-0.02
GCATGAAAGTTTAGTATGTGTAGGGTAGTGCTTCATGCGATTGACAGCGTAGAATGAAGG	0.31
GCGCTGAAACTGGATCCCTTCCTTACACCTTACACAGCGATTGACAGCGTAGAATGAAGG	0.17
GCTAGCCCTCTCAGAGGACAGAGCTAGGATAGCATGGCGATTGACAGCGTAGAATGAAGG	-0.54
GCTATCCTGCCTGCCTCTTCCCACTCCAGCCACCTGGCGATTGACAGCGTAGAATGAAGG	0.09
GCATGAGATTTCACTGTGTTAGCCAGGATGGTCTCCGCGATTGACAGCGTAGAATGAAGG	-0.61
GCCCTCTGAGCCTCTTGAACCATCTGGAATGTCAATGCGATTGACAGCGTAGAATGAAGG	0.41
GCATCGGGAGTGATGATAAGTAAGGCAAGCCCTGTTGCGATTGACAGCGTAGAATGAAGG	-0.45
